Laboratory results from the RNAGym collection of RNA variant scans (doi:10.7554/elife.90254).
The source gives no read counts; variants with many changes may rest on few reads.

B1: LINE1-mini (parent)
chain: GGCAGAGCUCAACACAGCGUGGCAAAGUGGCUGUGGCUAGACUGCC

Variants of: B1
Assay: self-cleavage, relative activity (ratio to wild type); higher = more cleavage; in vitro, sequencing; the parent is a self-cleaving ribozyme
GGCAGAGCUCAACACAGCGUGGCCAAGUUGCUGUUGCUAGUCUGCC [A24C G29U G35U A41U] gave a self-cleavage of 0.03. Work on GGCAGAGCUCAACACAGCGUGGCCAAGUGGUUGGGGCUAGACUGCC [A24C C31U U34G] yielded a self-cleavage of 0.08. GGCAGAGCUCAACACAGCGUGGCCAAGUGGCUUUGGCUAGACUGAC [A24C G33U C45A] gave a self-cleavage of 0.01. With GGCAGAGCUCAACACAGCGUGGCCAAGUGAAUGUGGCGAGACUGCC [A24C G30A C31A U38G] the self-cleavage was 0.01. GGCAGAGCUCAACACAGCGUGGCCAAGUGGCUGUCGCUAAACUGCC [A24C G35C G40A] gave a self-cleavage of 0.15. For GGCAGAGCUCAACACAGCGUGGCCAAGUGGCUGUGGCAAGACUGUC [A24C U38A C45U], the self-cleavage was 0.32. GGCAGAGCUCAACACAGCGUGGCCAAGCGGCUGUGGCUAGGCUGCC [A24C U28C A41G] showed a self-cleavage of 0.06. With GGCAGAGCUCAACACAGCGUGGCCAAGUGGCUGUGGGUAGCCUGCU [A24C C37G A41C C46U] the self-cleavage was 0.03. GGCAGAGCUCAACACAGCGUGGCCAAGGGGCUCUGGCUAGACUUCC [A24C U28G G33C G44U] gave a self-cleavage of 0. Work on GGCAGAGCUCAACACAGCGUGGCCAAGUGGAUGUGGUUACACUGCC [A24C C31A C37U G40C] yielded a self-cleavage of 0.02. Variant GGCAGAGCUCAACACAGCGUGGCGGAUUGGCUGUGGCUAGACUGCC [A24G A25G G27U] has a self-cleavage of 0.53. Variant GGCAGAGCUCAACACAGCGUGGCGAAGUGGGUGUGGCUAGAAUGCC [A24G C31G C42A] has a self-cleavage of 0.06. With GGCAGAGCUCAACACAGCGUGGCGAAGUGGCUGUGGCUAGUCUUCC [A24G A41U G44U] the self-cleavage was 0.03. GGCAGAGCUCAACACAGCGUGGCGUAGUGGCUGUUGCUAGACUGCC [A24G A25U G35U] gave a self-cleavage of 0.06. GGCAGAGCUCAACACAGCGUGGCGAAGUGGCUGUGGCUAGAGUGCG [A24G C42G C46G] showed a self-cleavage of 0.01. GGCAGAGCUCAACACAGCGUGGCGAAGUGGCUGUGGCUAGAGUGCU [A24G C42G C46U] gave a self-cleavage of 0.01. With GGCAGAGCUCAACACAGCGUGGCCAAGGGGCUGCGGCUAGGCUGAC [A24C U28G U34C A41G C45A] the self-cleavage was 0.03. Variant GGCAGAGCUCAACACAGCGUGGCCAAGUGGCUGUGGGUACACUGCC [A24C C37G G40C] has a self-cleavage of 0.08. GGCAGAGCUCAACACAGCGUGGCGAAGUGGUUGUGGAUGGACUGCA [A24G C31U C37A A39G C46A] showed a self-cleavage of 0.04. Work on GGCAGAGCUCAACACAGCGUGGCCAAGUGGCUCUGGCAAGAGUGCA [A24C G33C U38A C42G C46A] yielded a self-cleavage of 0.01. Variant GGCAGAGCUCAACACAGCGUGGCCAAGUGGCUGUGGCUAUACAGCC [A24C G40U U43A] has a self-cleavage of 0.03. With GGCAGAGCUCAACACAGCGUGGCCAAUUGGCUGUGGCUAAACUGCC [A24C G27U G40A] the self-cleavage was 0.09. GGCAGAGCUCAACACAGCGUGGCCAAGUGGCUAUGGCUAGACUGCA [A24C G33A C46A] showed a self-cleavage of 0.1. GGCAGAGCUCAACACAGCGUGGCCAAGUGGCUUUGGCUAGAAUGCC [A24C G33U C42A] gave a self-cleavage of 0.03. Work on GGCAGAGCUCAACACAGCGUGGCCAACUGGGUGUGGCUAGACUGCC [A24C G27C C31G] yielded a self-cleavage of 0.05. For GGCAGAGCUCAACACAGCGUGGCCAAGUGGCUUUGACUAGACUGCC [A24C G33U G36A], the self-cleavage was 0.03. Variant GGCAGAGCUCAACACAGCGUGGCGAACUGGCUGUUGCUAUACUGCA [A24G G27C G35U G40U C46A] has a self-cleavage of 0.11. For GGCAGAGCUCAACACAGCGUGGCCAAGUGGUUGUGGCUAGGCUGCC [A24C C31U A41G], the self-cleavage was 0.09. Variant GGCAGAGCUCAACACAGCGUGGCCAAGUGGCGGGGGCUAGACUACC [A24C U32G U34G G44A] has a self-cleavage of 0.01. GGCAGAGCUCAACACAGCGUGGCCAAGUGGCUGUAGCUAGACAGCC [A24C G35A U43A] showed a self-cleavage of 0.02. GGCAGAGCUCAACACAGCGUGGCCAAGUGGCUGUUGCUAUACUGCU [A24C G35U G40U C46U] gave a self-cleavage of 0.07. GGCAGAGCUCAACACAGCGUGGCCAAGUGGAUGUGAGUAGACCGCC [A24C C31A G36A C37G U43C] gave a self-cleavage of 0.03. For GGCAGAGCUCAACACAGCGUGGCGAAGUGGUUUUGGCUAGACUGCC [A24G C31U G33U], the self-cleavage was 0.06. Variant GGCAGAGCUCAACACAGCGUGGCCAAGUGGCUGUGGUUAGCCUGCC [A24C C37U A41C] has a self-cleavage of 0. Work on GGCAGAGCUCAACACAGCGUGGCGCUGUGGAUGUGGCUAAACUGCC [A24G A25C A26U C31A G40A] yielded a self-cleavage of 0.02. Variant GGCAGAGCUCAACACAGCGUGGCCAAGUGGCUGUGCCUAGUCUGCC [A24C G36C A41U] has a self-cleavage of 0.13. Work on GGCAGAGCUCAACACAGCGUGGCGAAGUGGCUGUGGCUAGCAUGCC [A24G A41C C42A] yielded a self-cleavage of 0.05. In the case of GGCAGAGCUCAACACAGCGUGGCCAAGUCGCUGUGGCUAGACUGCG [A24C G29C C46G], the self-cleavage is reported as 0.11. GGCAGAGCUCAACACAGCGUGGCCAAGUGCCUUUGGCUAGACUGCC [A24C G30C G33U] gave a self-cleavage of 0.14. Variant GGCAGAGCUCAACACAGCGUGGCCAAGGCGUUGUGGCUAUACUGCC [A24C U28G G29C C31U G40U] has a self-cleavage of 0.03. Work on GGCAGAGCUCAACACAGCGUGGCGAAGUGGUUGGGCCUAGACUUAC [A24G C31U U34G G36C G44U C45A] yielded a self-cleavage of 0.01. GGCAGAGCUCAACACAGCGUGGCGCAGUGGCUGUGGCUAGACACCC [A24G A25C U43A G44C] showed a self-cleavage of 0.08. GGCAGAGCUCAACACAGCGUGGCCAAGUGGCUCUGACUAGACUGCC [A24C G33C G36A] gave a self-cleavage of 0.03. For GGCAGAGCUCAACACAGCGUGGCCAAGUGGCUAUGGUUAGAUUCCC [A24C G33A C37U C42U G44C], the self-cleavage was 0.01. For GGCAGAGCUCAACACAGCGUGGCGAAGUGGUUGUGGCCAAACUGCC [A24G C31U U38C G40A], the self-cleavage was 0.03. With GGCAGAGCUCAACACAGCGUGGCCAAGUGGAUGUGGCUAGACUGAC [A24C C31A C45A] the self-cleavage was 0.23. Work on GGCAGAGCUCAACACAGCGUGGCCAAGUGGGUUAGGCUAGACUGCC [A24C C31G G33U U34A] yielded a self-cleavage of 0.03. With GGCAGAGCUCAACACAGCGUGGCCAAGUGGCAGUGGGUAGACUGCC [A24C U32A C37G] the self-cleavage was 0. GGCAGAGCUCAACACAGCGUGGCCAACUUUCUGUGGCUAGAUUGCC [A24C G27C G29U G30U C42U] showed a self-cleavage of 0.09. With GGCAGAGCUCAACACAGCGUGGCCAACUAGCUGUGGCUAGACGGCC [A24C G27C G29A U43G] the self-cleavage was 0.01. GGCAGAGCUCAACACAGCGUGGCCAAGUGGCUGUGACUUGACUGUC [A24C G36A A39U C45U] showed a self-cleavage of 0.05. Variant GGCAGAGCUCAACACAGCGUGGCCAAGUGGCUCUCGAUAGACUGCC [A24C G33C G35C C37A] has a self-cleavage of 0.04. With GGCAGAGCUCAACACAGCGUGGCGAAGUGGAUGUGGCUUGACUACC [A24G C31A A39U G44A] the self-cleavage was 0.02. For GGCAGAGCUCAACACAGCGUGGCCAAUUGGCUGUGGCUAGACUGAC [A24C G27U C45A], the self-cleavage was 0.57. Work on GGCAGAGCUCAACACAGCGUGGCGAAGUGGUUGUGGCUAGAAUGCC [A24G C31U C42A] yielded a self-cleavage of 0. Variant GGCAGAGCUCAACACAGCGUGGCCAAGAGGCUGUGGUUAGACUGCC [A24C U28A C37U] has a self-cleavage of 0.04.
